Over roughly 18,000 sequences, “TetR repression strength (sort-seq, GFP reporter)” has its median near 0.23; the highest 2% begin near 0.68. Some of the results follow.
Each sequence was assayed against TetR (class B, Tn10) (UniProt P04483) (assay: TetR repression strength (sort-seq, GFP reporter) (relative to tetO2 = 1); higher = stronger repression). Details: E. coli.
Summary of the method: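 Escherichia coli SIG10-MAX cells carried a low-copy plasmid library in which eight operator positions were randomized between a constitutive promoter and sfGFP, and TetR was expressed constitutively. After 5 h of growth at 37 °C in LB with 50 µg/mL chloramphenicol, 10^6 cells were FACS-sorted into 13 fluorescence bins, and each bin was Illumina-sequenced. Repression strength was the top bin index plus one minus the read-weighted mean bin, divided by the value for the unaltered operator. Across three independent transformations, only library members with ≥30 reads in every replicate and a CV ≤0.5 were averaged.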

Sequence of UniProt P04483 (P04483 whole entry): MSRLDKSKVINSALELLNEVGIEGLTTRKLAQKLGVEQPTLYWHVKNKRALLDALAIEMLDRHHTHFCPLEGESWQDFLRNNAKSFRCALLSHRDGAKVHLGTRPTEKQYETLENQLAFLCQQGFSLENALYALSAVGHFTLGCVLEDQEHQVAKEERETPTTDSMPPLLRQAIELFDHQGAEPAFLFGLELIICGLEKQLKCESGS

Row | Sequence | TetR repression strength
1 | TCCCTTGAAGTGAGGGAGA | 0.118
2 | TCCCGTATAGTTGAAGAGA | 0.0792
3 | TCCCCGTAAGTTATGGAGA | 0.259
4 | TCCCTCCCAGTCGCGGAGA | 0.291
5 | TCCCTAAAAGTTCTCGAGA | 0.375
6 | TCCCATCAAGTCCTTGAGA | 0.325
7 | TCCCAATGAGTGGGGGAGA | 0.227
8 | TCCCTTGGAGTCTTGGAGA | 0.265
9 | TCCCCGAGAGTGCGTGAGA | 0.415
10 | TCCCGCCTAGTCAGGGAGA | 0.0997
11 | TCCCTGTTAGTTCTTGAGA | 0.212
12 | TCCCAGATAGTTTCAGAGA | 0.307
13 | TCCCGCTAAGTGACGGAGA | 0.257
14 | TCCCGTCGAGTAGCTGAGA | 0.186
15 | TCCCCGTCAGTGCGAGAGA | 0.69
16 | TCCCTAGTAGTTATGGAGA | 0.136
17 | TCCCAGTGAGTCGGTGAGA | 0.0633
18 | TCCCTACAAGTCAGGGAGA | 0.295
19 | TCCCGGGTAGTTCGGGAGA | 0.723
20 | TCCCGTTAAGTCTTGGAGA | 0.302
21 | TCCCGTCAAGTGGCAGAGA | 0.318
22 | TCCCCGACAGTACAGGAGA | 0.29
23 | TCCCGCTCAGTGATTGAGA | 0.43
24 | TCCCGACGAGTCTTTGAGA | 0.366
25 | TCCCCGAAAGTTGTGGAGA | 0.217
26 | TCCCGGGGAGTCCTGGAGA | 0.115

Row | Sequence | TetR repression strength
27 | TCCCGTGGAGTGAAAGAGA | 0.237
28 | TCCCAAAGAGTTGGAGAGA | 0.17
29 | TCCCTTGTAGTCTAAGAGA | 0.00732
30 | TCCCTGCTAGTTCCCGAGA | 0.449
31 | TCCCCGGCAGTTACTGAGA | 0.415
32 | TCCCGGCCAGTAAGGGAGA | 0.261
33 | TCCCGTGCAGTCCGGGAGA | 0.236
34 | TCCCGGGCAGTGAAAGAGA | 0.322
35 | TCCCGCGCAGTGAATGAGA | 0.214
36 | TCCCCATGAGTTAGCGAGA | 0.188
37 | TCCCATGGAGTTGCTGAGA | 0.203
38 | TCCCCTCGAGTAAGCGAGA | 0.383
39 | TCCCGTTTAGTCTTAGAGA | 0.334
40 | TCCCATCTAGTAGGGGAGA | 0.0156
41 | TCCCTTGGAGTACGGGAGA | 0.0347
42 | TCCCTCAGAGTGAGTGAGA | 0.173
43 | TCCCAGGTAGTCTCTGAGA | 0.232
44 | TCCCGCAAAGTGCGCGAGA | 0.261
45 | TCCCTTGTAGTGAATGAGA | 0.277
46 | TCCCTGCCAGTTGCGGAGA | 0.353
47 | TCCCGATAAGTCGTCGAGA | 0.0276
48 | TCCCTGGGAGTTGGCGAGA | 0.0578
49 | TCCCGACTAGTCCGTGAGA | 0.229
50 | TCCCCTTGAGTTGTTGAGA | 0.207
51 | TCCCTCATAGTGTCAGAGA | 0.178
52 | TCCCACGGAGTGGGGGAGA | 0.232

Row | Sequence | TetR repression strength
53 | TCCCAACAAGTGCGGGAGA | 0.659
54 | TCCCGAGCAGTTAGGGAGA | 0.242
55 | TCCCTTCGAGTAAAGGAGA | 0.321
56 | TCCCGGAGAGTTGCAGAGA | 0.207
57 | TCCCGATAAGTAGTGGAGA | 0.376
58 | TCCCCGGGAGTTAGGGAGA | 0.123
59 | TCCCGCATAGTAGAGGAGA | 0.556
60 | TCCCGGCGAGTCGAAGAGA | 0.244
61 | TCCCGGGAAGTATTCGAGA | 0.391
62 | TCCCTCGTAGTGTAGGAGA | 0.171
63 | TCCCAATTAGTTTAGGAGA | 0.259
64 | TCCCGCGGAGTCATAGAGA | 0.299
65 | TCCCCGGAAGTGCCTGAGA | 0.276
66 | TCCCGACAAGTCTATGAGA | 0.295
67 | TCCCCATCAGTTGGGGAGA | 0.263
68 | TCCCCTTAAGTGCGGGAGA | 0.159
69 | TCCCAGGTAGTCGGGGAGA | 0.295
70 | TCCCCTGGAGTGCTAGAGA | 0.209
71 | TCCCGCTCAGTCAGCGAGA | 0.388
72 | TCCCGCCGAGTACGCGAGA | 0.104
73 | TCCCTAGAAGTAATTGAGA | 0.287
74 | TCCCACATAGTAAGAGAGA | 0.265
75 | TCCCGCGAAGTCGTGGAGA | 0.0576
76 | TCCCAATGAGTTAACGAGA | 0.259
77 | TCCCTTTGAGTATTTGAGA | 0.415
78 | TCCCCTCTAGTAGGTGAGA | 0.12

Row | Sequence | TetR repression strength
79 | TCCCGCCGAGTTCGGGAGA | 0.203
80 | TCCCTTCCAGTATGGGAGA | 0.185
81 | TCCCAGCCAGTTGGCGAGA | 0.171
82 | TCCCTGTTAGTAGTGGAGA | 0.236
83 | TCCCGGTCAGTAGAGGAGA | 0.248
84 | TCCCTGTGAGTGGATGAGA | 0.117
85 | TCCCATAGAGTAATAGAGA | 0.198
86 | TCCCCCTTAGTGAAAGAGA | 0.397
87 | TCCCGGTCAGTATCGGAGA | 0.238
88 | TCCCCGCTAGTGCAAGAGA | 0.376
89 | TCCCTCGGAGTGTGCGAGA | 0.09
90 | TCCCTTTGAGTTTTCGAGA | 0.304
91 | TCCCTAGGAGTTGATGAGA | 0.0259
92 | TCCCACTTAGTAGCGGAGA | 0.271
93 | TCCCCCTCAGTCAGGGAGA | 0.179
94 | TCCCTCTAAGTAGGGGAGA | 0.334
95 | TCCCAGCAAGTCCATGAGA | 0.23
96 | TCCCCGTCAGTGGCGGAGA | 0.143
97 | TCCCCAGTAGTCCGCGAGA | 0.207
98 | TCCCCGTGAGTGGAGGAGA | 0.234
99 | TCCCCGCAAGTCCGGGAGA | 0.25
100 | TCCCGATCAGTGGTCGAGA | 0.212
101 | TCCCGATCAGTAGGAGAGA | 0.167
102 | TCCCCATCAGTGGCGGAGA | 0.258
